The labels stand for the following.
B1: PhoQ; a variant is named by its letters at X, in order, P23837 (parent)
chain: MKKLLRLFFPLSLRVRFLLATAAVVLVLSLAYGMVALIGYSVSFDKTTFRLLRGESNLFYTLAKWENNKLHVELPENIDKQSPTMTLIYDENGQLLWAQRDVPWLMKMIQPDWLKSNGFHEIEADVNDTSLLLSGDHSIQQQLQEVREDDDDAEMTHSVAVNVYPATSRMPKLTIVVVDTIPVELKSSYMVWSWFIYVLSANLLLVIPLLWVAAWWSLRPIEALAKEVRELEEHNRELLNPATTRELTSLVRNLNRLLKSERERYDKYRTTLTDLTHSLKTPLXXLQXXLRSLRSEKMSVSDAEPVMLEQISRISQQIGYYLHRASMRGGTLLSRELHPVAPLLDNLTSALNKVYQRKGVNISLDISPEISFVGEQNDFVEVMGNVLDNACKYCLEFVEISARQTDEHLYIVVEDDGPGIPLSKREVIFDRGQRVDTLRPGQGVGLAVAREITEQYEGKIVAGESMLGGARMEVIFGRQHSAPKDE

The list shows a part of the results.

Variants of B1 are the subject of this test. Description: enrichment ratio after two sorts for PhoP signalling (ratio (wild type AVST 3.29)); higher = more functional. As to conditions: with PhoP (E. coli).
Regarding IMHV, the enrichment ratio was no more than 0.25.

On to PGVC, for which the enrichment ratio is no more than 0.25.

Turning to YEAF, the enrichment ratio is no more than 0.25.

On to MAFV, for which the enrichment ratio came to 6.76.

Turning to FCRT, the enrichment ratio was no more than 0.25.

As to FQIM, the enrichment ratio is no more than 0.25.

With QSLA, the enrichment ratio is no more than 0.25.

For RWFE, the enrichment ratio is no more than 0.25.

Regarding HTPE, the enrichment ratio was no more than 0.25.

As for ISQY, the enrichment ratio was no more than 0.25.

On to FGEV, for which the enrichment ratio is no more than 0.25.

Consider VMHC, for which the enrichment ratio is no more than 0.25.

For QHRA, the enrichment ratio was no more than 0.25.

Take WCPG: the enrichment ratio is no more than 0.25.

Regarding TGKT, the enrichment ratio is no more than 0.25.

Regarding FAAF, the enrichment ratio is no more than 0.25.

As to MNDA, the enrichment ratio was no more than 0.25.

For the variant GRIT, the enrichment ratio was no more than 0.25.

As to GQMY, the enrichment ratio was no more than 0.25.

On to HMRC, for which the enrichment ratio was no more than 0.25.

For NSDK, the enrichment ratio is no more than 0.25.

Regarding MKEI, the enrichment ratio was no more than 0.25.

Take SPVP: the enrichment ratio was no more than 0.25.

Regarding VVIP, the enrichment ratio was no more than 0.25.

With VKRC, the enrichment ratio is no more than 0.25.

As to RGII, the enrichment ratio was no more than 0.25.

Turning to TSIT, the enrichment ratio is no more than 0.25.

With PNWC, the enrichment ratio is no more than 0.25.

For the variant MWGT, the enrichment ratio was no more than 0.25.

Take NCVW: the enrichment ratio was no more than 0.25.

As for NAST, the enrichment ratio is no more than 0.25.

For the variant EYTA, the enrichment ratio is no more than 0.25.

Take IIRR: the enrichment ratio is no more than 0.25.

As for REII, the enrichment ratio was no more than 0.25.

In the case of MSVA, the enrichment ratio was no more than 0.25.

As for RWHH, the enrichment ratio was no more than 0.25.

For the variant IQGE, the enrichment ratio was no more than 0.25.

On to RSNL, for which the enrichment ratio was no more than 0.25.

For the variant PNVQ, the enrichment ratio was no more than 0.25.

In the case of GSMD, the enrichment ratio was no more than 0.25.

As to LCRS, the enrichment ratio is no more than 0.25.

FYTN: the enrichment ratio is no more than 0.25.

Consider AQTR, for which the enrichment ratio is no more than 0.25.

Turning to ADCC, the enrichment ratio is 4.94.

As for GNKC, the enrichment ratio is no more than 0.25.

As for HWSG, the enrichment ratio is no more than 0.25.

Take DQIS: the enrichment ratio was no more than 0.25.

In the case of TDFT, the enrichment ratio was 1.54.

As to FHTA, the enrichment ratio was no more than 0.25.

Turning to THYI, the enrichment ratio was no more than 0.25.

QETP: the enrichment ratio was no more than 0.25.

ARHP: the enrichment ratio is no more than 0.25.

As to WVHY, the enrichment ratio was no more than 0.25.

Consider RKFH, for which the enrichment ratio is no more than 0.25.

With WHPD, the enrichment ratio is no more than 0.25.

In the case of PAHV, the enrichment ratio is no more than 0.25.

For HEGV, the enrichment ratio is no more than 0.25.

Turning to YEKN, the enrichment ratio was no more than 0.25.

WILL: the enrichment ratio was no more than 0.25.

For ADYC, the enrichment ratio was no more than 0.25.

On to KCML, for which the enrichment ratio was no more than 0.25.

For VLAE, the enrichment ratio is no more than 0.25.

As to TVDE, the enrichment ratio was no more than 0.25.

As to WFHL, the enrichment ratio is no more than 0.25.

Consider FPKC, for which the enrichment ratio is no more than 0.25.

Turning to APTA, the enrichment ratio is no more than 0.25.

Turning to QNAL, the enrichment ratio is 0.945.

For the variant VVSR, the enrichment ratio was no more than 0.25.

In the case of ADGW, the enrichment ratio was no more than 0.25.

In the case of LRYM, the enrichment ratio is no more than 0.25.

Take HWLK: the enrichment ratio is no more than 0.25.

In the case of PHTL, the enrichment ratio is no more than 0.25.

For the variant KNNA, the enrichment ratio is no more than 0.25.

Take KQSC: the enrichment ratio was no more than 0.25.

In the case of VFCI, the enrichment ratio was no more than 0.25.

On to IPPY, for which the enrichment ratio was no more than 0.25.

Regarding YTNM, the enrichment ratio was no more than 0.25.

In the case of LWAI, the enrichment ratio is no more than 0.25.

As to IFFP, the enrichment ratio is no more than 0.25.

As to SRFQ, the enrichment ratio is no more than 0.25.

As for PINL, the enrichment ratio was no more than 0.25.

Turning to FHAI, the enrichment ratio was no more than 0.25.

For HLIF, the enrichment ratio is no more than 0.25.

As to YYHE, the enrichment ratio was no more than 0.25.

As to VEWE, the enrichment ratio was no more than 0.25.

YNGD: the enrichment ratio is no more than 0.25.

In the case of APHH, the enrichment ratio is no more than 0.25.

Take HMHW: the enrichment ratio was no more than 0.25.

As to PWTN, the enrichment ratio was no more than 0.25.

For KCKD, the enrichment ratio is no more than 0.25.

For DYFG, the enrichment ratio is no more than 0.25.

Regarding YDKV, the enrichment ratio is no more than 0.25.

As to MESW, the enrichment ratio was no more than 0.25.

With NNIM, the enrichment ratio was no more than 0.25.

FSYL: the enrichment ratio was no more than 0.25.

For EKLC, the enrichment ratio was no more than 0.25.

As to AWNM, the enrichment ratio was no more than 0.25.

As for WKAC, the enrichment ratio is no more than 0.25.

For the variant PMHM, the enrichment ratio is no more than 0.25.

Regarding EPGM, the enrichment ratio was no more than 0.25.

As to PPNN, the enrichment ratio is no more than 0.25.

In the case of HRFT, the enrichment ratio was no more than 0.25.

On to NNTS, for which the enrichment ratio was no more than 0.25.

Take LCNF: the enrichment ratio is no more than 0.25.

Turning to SVIP, the enrichment ratio was no more than 0.25.

As for YCSY, the enrichment ratio was no more than 0.25.

Turning to FVAK, the enrichment ratio is no more than 0.25.

On to GTIK, for which the enrichment ratio was no more than 0.25.

As to KNSE, the enrichment ratio is no more than 0.25.

Regarding SPVK, the enrichment ratio is no more than 0.25.

For NTAL, the enrichment ratio is no more than 0.25.

As for TSVF, the enrichment ratio was 0.681.

Turning to PMGI, the enrichment ratio is no more than 0.25.

Turning to YQEV, the enrichment ratio was no more than 0.25.

Take YEHV: the enrichment ratio was no more than 0.25.

Regarding LATL, the enrichment ratio is no more than 0.25.

For the variant IVRK, the enrichment ratio was no more than 0.25.

As to VVMA, the enrichment ratio was no more than 0.25.

With INNK, the enrichment ratio was no more than 0.25.

On to AKGW, for which the enrichment ratio is no more than 0.25.

Regarding PAAL, the enrichment ratio was no more than 0.25.

Turning to GESG, the enrichment ratio was found to be 10.9.

As to FTPA, the enrichment ratio worked out at 0.426.

As for VQAF, the enrichment ratio is no more than 0.25.

For GNVR, the enrichment ratio was no more than 0.25.

Take TRRC: the enrichment ratio was no more than 0.25.

As to ERDR, the enrichment ratio is no more than 0.25.

For SLCF, the enrichment ratio came out at 5.27.

For the variant NYVR, the enrichment ratio is 0.286.

On to PTSW, for which the enrichment ratio was no more than 0.25.

On to VIEP, for which the enrichment ratio was no more than 0.25.

Regarding SWWL, the enrichment ratio was no more than 0.25.

With TQPE, the enrichment ratio is no more than 0.25.

As to LYIT, the enrichment ratio was no more than 0.25.

QNAG: the enrichment ratio was no more than 0.25.

FRMS: the enrichment ratio is no more than 0.25.

Consider KELK, for which the enrichment ratio was no more than 0.25.

Regarding WCCN, the enrichment ratio is no more than 0.25.

Take HQRY: the enrichment ratio was no more than 0.25.

Consider SVNG, for which the enrichment ratio worked out at 12.5.

Consider YSNA, for which the enrichment ratio is no more than 0.25.

Regarding ESIE, the enrichment ratio was no more than 0.25.

Take GDLK: the enrichment ratio was no more than 0.25.

HPHV: the enrichment ratio is no more than 0.25.

For TQAT, the enrichment ratio turned out to be 12.7.

With GAKF, the enrichment ratio is no more than 0.25.

Regarding GTTE, the enrichment ratio is no more than 0.25.

As for ACNS, the enrichment ratio is no more than 0.25.

On to FFSG, for which the enrichment ratio is no more than 0.25.

For the variant MLVY, the enrichment ratio is no more than 0.25.

Take EQVH: the enrichment ratio is no more than 0.25.

In the case of LTQG, the enrichment ratio is no more than 0.25.

RHWW: the enrichment ratio is no more than 0.25.

The record behind these values is a collection of fitness landscapes (doi:10.1126/science.1257360).
